# Data from PubChem BioAssay AID1460 (National Center for Advancing Translational Sciences (NCATS), 2008).
# The campaign covered roughly 270,000 compounds. About 5,800 (2.1%) were called active. The shares of active, inactive and inconclusive entries below differ from those in the screen. Calls come from the whole dose curve; as a rule, active = well fitted inhibition curve with a large enough effect; inconclusive = small, poorly fitted or top-dose-only effect; inactive = flat fitted curve, though single readings scatter. Where the call is inconclusive, the potency comes from a doubtful curve fit.
# Molecular target: Microtubule-associated protein tau (Homo sapiens) (UniProt P10636)
# Assay: qHTS for Inhibitors of Tau Fibril Formation, Thioflavin T Binding; note: nearly all actives have a fitted effect of over 55% in size
# Conditions: recombinant tau K18 P301L (four-repeat tau fragment), heparin-induced fibrillization, ThT fluorescence; series mostly up to 57.4 µM; activity, negative = inhibition: at the top concentration
# Procedure, shortened: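 Recombinant human tau K18 fragment […] carrying P301L, 15 uM unlabeled plus 0.24 uM Alexa 594-labeled, was fibrillized with 20 uM heparin in 100 mM sodium acetate pH 7 for 6 hr at 37 C; 30 uM ThT fluorescence read after 1 hr.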
# % is set by controls: 0 for no effect and ±100 for the full control effect; potency is the fitted concentration of half-maximal effect; tags give direction and shape of the fitted curve.
# Sequence of UniProt P10636 (P10636 whole entry, looked up): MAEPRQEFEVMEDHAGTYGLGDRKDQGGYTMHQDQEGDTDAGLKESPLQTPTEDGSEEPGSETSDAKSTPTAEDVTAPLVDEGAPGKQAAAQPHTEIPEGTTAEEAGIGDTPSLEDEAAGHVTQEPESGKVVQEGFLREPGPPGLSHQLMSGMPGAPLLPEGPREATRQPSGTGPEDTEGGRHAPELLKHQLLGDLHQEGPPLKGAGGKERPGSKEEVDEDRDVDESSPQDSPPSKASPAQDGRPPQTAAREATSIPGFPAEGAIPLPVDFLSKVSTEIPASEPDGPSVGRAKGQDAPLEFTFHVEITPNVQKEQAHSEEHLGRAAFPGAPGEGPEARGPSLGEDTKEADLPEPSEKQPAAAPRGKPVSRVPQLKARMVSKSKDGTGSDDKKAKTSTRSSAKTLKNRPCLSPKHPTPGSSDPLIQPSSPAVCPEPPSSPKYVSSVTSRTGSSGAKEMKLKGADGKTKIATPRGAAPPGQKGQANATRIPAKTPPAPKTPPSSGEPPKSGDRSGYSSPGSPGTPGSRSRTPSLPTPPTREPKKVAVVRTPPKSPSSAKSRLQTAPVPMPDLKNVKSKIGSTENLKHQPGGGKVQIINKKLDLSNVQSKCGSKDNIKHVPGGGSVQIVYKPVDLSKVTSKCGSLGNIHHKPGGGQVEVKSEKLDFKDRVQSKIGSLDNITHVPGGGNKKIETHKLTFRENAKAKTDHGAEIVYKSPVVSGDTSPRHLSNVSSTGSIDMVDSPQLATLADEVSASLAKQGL
SMILES,Potency,"activity, negative = inhibition"
Cc1ccc(S(=O)(=O)Nc2nc3ccccc3nc2NCc2ccco2)cc1C,"inconclusive: 31.6 µM [inhibitor, partial curve]",
CCOc1ccc(N=Nc2cc(C(C)C)ccc2O)cc1,"inconclusive: 10 µM [inhibitor, partial curve]",
CCc1ccc2c(c1)C1(NN=C(c3cccc4ccccc34)S1)C(=O)N2 (stereo not drawn),active: 15.8 µM,
O=C(OCC#CCSc1nnc(-c2ccncc2)o1)c1sc2ccccc2c1Cl,"inconclusive: 7.08 µM [inhibitor, partial curve]",
CC(=O)N[C@H](CS)C(=O)O,"inconclusive: 39.8 µM [inhibitor, single point]",
O=c1[nH]c(-c2ccccn2)nc2ccccc12,,inactive: -2.47%
Oc1c(C(c2ccc(Cl)cc2Cl)N2CCN(c3ccccc3)CC2)sc2nc(-c3ccco3)nn12 (stereo not drawn),"inconclusive: 22.4 µM [inhibitor, partial curve]",
Cc1cc(NC(=O)c2cc(C(C)(C)C)oc2C)no1,,inactive: -3.83%
O=C(NN1C(=O)/C(=C/c2cccnc2)SC1=S)C(c1ccccc1)c1ccccc1,"inconclusive: 22.4 µM [inhibitor, partial curve]",
O=C(CN1CCOCC1)Nc1cccc(C(=O)Nc2cccc(C(F)(F)F)c2)c1,,inactive: -2.84%
Oc1ccc2ccccc2c1C1Nc2cccc3cccc(c23)N1,active: 28.2 µM,
Nc1c(C(=O)Nc2ccccc2)sc2nc3c(c(-c4ccco4)c12)CCCC3,"inconclusive: 7.94 µM [inhibitor, full curve]",
CCc1cc(C(=O)NNC(=S)Nc2cccc(C)c2)cs1,,inactive: -17.1%
O=C1CC(c2ccco2)CC(O)=C1C=Nc1cc(Cl)ccc1Cl (stereo not drawn),active: 22.4 µM,
CCN(CC)c1ccc(C(=O)NNC(=O)CCl)cc1,"inconclusive: 11.2 µM [inhibitor, partial curve]",
COc1ccc(Nc2nnc(-c3ccc(N4CCOCC4)c([N+](=O)[O-])c3)c3ccccc23)cc1,"inconclusive: 11.2 µM [inhibitor, partial curve]",
O=CN1CCc2scc[n+]2-c2ccccc21,"inconclusive: 31.6 µM [inhibitor, partial curve]",
C=CCn1c(O)c(N=O)c2ccccc21,,inactive: -17.7%
Cc1ccc(CNC(=O)Cn2c(=O)cc(C(F)(F)F)c3c(C)nn(C)c32)cc1,,inactive: -0.146%
COc1ccc(C2CC(c3ccccc3)Nc3nc(NC(=O)c4cccs4)nn32)cc1 (stereo not drawn),,inactive: -16.2%
O=C(CCc1c[nH]c2ccccc12)N=Nc1c(O)[nH]c2ccccc12,"inconclusive: 17.8 µM [inhibitor, partial curve]",
Cc1ccc(S(=O)(=O)NCC[C@@]2(C)C3CCC2(C)C(=O)C3)cc1 (stereo partly drawn),,inactive: -13.3%
CC(C)Oc1ccc(C(=O)N2CCN(CCc3ccccn3)CC2)cc1,,inactive: 4.11%
Cc1ccc(CNC(=O)c2ccc(N3CCc4ccccc43)c([N+](=O)[O-])c2)cc1,"inconclusive: 10 µM [inhibitor, partial curve]",

SMILES,Potency,"activity, negative = inhibition"
CC(C)(C)c1ccc(C(=O)N2CCNCC2)cc1,,inactive: -11.8%
CCCn1c(SCc2nc(-c3ccc(OC)c(OC)c3)no2)nnc1-c1ccccc1,,inactive: -16%
COc1ccccc1N(O)C1CC(=O)N(c2ccc(F)cc2)C1=O (stereo not drawn),active: 14.1 µM,
Cc1cc[n+](CC(=O)c2ccc(NC(=O)c3ccccc3)cc2)c2ccccc12,"inconclusive: 2.82 µM [inhibitor, full curve]",
Cc1nc([N+](=O)[O-])nn1C12CC3CC(CC(Br)(C3)C1)C2,"inconclusive: 35.5 µM [inhibitor, single point]",
CCn1c(-c2ccc(F)cc2)cnc1SCC(=O)N1CCc2ccccc21,"inconclusive: 7.08 µM [inhibitor, partial curve]",
O=C(COC(=O)CCc1c[nH]c(=O)[nH]1)Nc1ccccc1Cl,"inconclusive: 28.2 µM [inhibitor, single point]",
CCOc1ccc(N2C(=O)S/C(=C\c3ccc(O)c(OC)c3)C2=O)cc1,"inconclusive: 1.41 µM [inhibitor, partial curve]",
COc1ccc(NC(=O)c2ccccc2)c([N+](=O)[O-])c1,"inconclusive: 20 µM [inhibitor, single point]",
O=C(Nc1ccc2nc(SCC(=O)N3CCc4ccccc43)sc2c1)c1ccc(F)cc1,"inconclusive: 39.8 µM [activator, single point]",
CC(NC(=O)Cn1c(=O)[nH]c2ccsc2c1=O)C12CC3CC(CC(C3)C1)C2 (stereo not drawn),,inactive: -16.8%
CCCc1nc(SC)ncc1C(=O)N1CCN(c2ccc(Cl)cc2)CC1,,inactive: -15.1%
COc1ccccc1C(=O)Nc1cc2ccccc2oc1=O,"inconclusive: 0.398 µM [inhibitor, full curve]",
Cc1cccc(N2CCN(C(=O)CN3CCSc4ccccc43)CC2C)c1 (stereo not drawn),"inconclusive: 14.1 µM [inhibitor, single point]",
Cc1ccc(COC(=O)c2nn(-c3ccccc3)nc2N)cc1,"inconclusive: 28.2 µM [inhibitor, single point]",
COc1c(C)cc(C(=O)C2CCCN(C(=O)c3cccc(-n4cccn4)c3)C2)cc1C (stereo not drawn),"inconclusive: 22.4 µM [inhibitor, partial curve]",
N#Cc1cc(N2CCCCC2)c([N+](=O)[O-])cc1C#N,"inconclusive: 15.8 µM [inhibitor, partial curve]",
Cc1ccc(NC(=O)C(C)Sc2nc(=O)cc(N)n2-c2cccc(C)c2)cc1 (stereo not drawn),,inactive: -6.63%
Cc1ccc(Nc2cc(C(=O)NCCCN3CCOCC3)c3ccccc3n2)c(C)c1,,inactive: -4.07%
CCOC(=O)CNC1CC(=O)N(c2cccc(Cl)c2)C1=O (stereo not drawn),,inactive: -5.88%
Cc1ccc(OCc2nn3c(-c4ccco4)nnc3s2)cc1,"inconclusive: 22.4 µM [inhibitor, partial curve, poor fit]",
CC1CCc2nn(CC(=O)Nc3ccccc3Cl)cc2C1 (stereo not drawn),,inactive: 2.27%
COc1ccc(OC)c(CNC(=O)c2ccc(-c3nc(CSc4ccccc4)c(C)o3)cc2)c1,,inactive: -6.11%
Oc1cccc2ccc(/C=C/c3cccs3)nc12,"inconclusive: 7.08 µM [inhibitor, full curve]",
